The source gives no read counts; variants with many changes may rest on few reads.

The labels stand for the following.
B1: CPEB3 Ribozyme (parent)
chain: UAACAGGGGGCCACAGCAGAAGCGUUCACGUCGCAGCCCCUGUCAGAUUCUGGUGAAUCUGCGAAUUCUGCUGUAUAUCUC

Variants of B1 are the subject of this data set. Nature of the data set: self-cleavage, relative activity (ratio to wild type); higher = more cleavage; in vitro, sequencing. The essentials:
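For each CPEB3 ribozyme variant, relative activity is its cleaved/total read fraction divided by the unmutated ribozyme's. Barcoded error-prone PCR libraries were transcribed by T7 RNA polymerase (5 hours, 37°C) and held in DNase I for 15 min before an EDTA stop, with cleavage occurring throughout. Template-switching reverse transcription and Illumina sequencing were used to read the RNAs. A 5-read minimum applied, and results are the mean of three batches.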
For the variant G30A C37G A64G, the self-cleavage came to 0.42.
As to A28G A35G U41A U43G, the self-cleavage amounted to 0.2.
For the variant A28G A35U A45U, the self-cleavage is 0.16.
Regarding C29U U41A A64G U72A U74C U80C, the self-cleavage came out at 0.19.
Take C29A A45G A75U: the self-cleavage came to 0.33.
In the case of A28G U41A A45U U60C U67C, the self-cleavage was found to be 0.11.
Consider A28G U60C U67C G70A, for which the self-cleavage was determined as 0.16.
Next, A28G A35U U80C: 0.29; A28U U31A G46A U69C: 0.1.
As for C29U U43C U80C, the self-cleavage came out at 0.37.
Regarding A28G U41A U58C, the self-cleavage was found to be 0.24.
Turning to C29U U60C U72C, the self-cleavage turned out to be 0.22.
In the case of C27U U31A A56U U67C A77U, the self-cleavage was 0.06.
With A28G U31A C39A A57G, the self-cleavage is 0.11.
Next, C29U U31A A35G G46A A47G: 0.27; A28G U31A U49C: 0.27; C29U A64G U69C: 0.29.
Consider A28U A45U C79U, for which the self-cleavage is 0.38.
The value for A28U G33A U54A A75G was 0.05; that for A28G A47C U51A U54C was 0.24.
A28G U31C A45G A75U U80C: the self-cleavage is 0.27.
Regarding C27U U54A U78A, the self-cleavage was 0.24.
For the variant A28G A45U U72C, the self-cleavage was 0.22.
For A28G A47C U51C U66C U72A, the self-cleavage stood at 0.25.
Next, A28G A35U U54C U58C U72C: 0.14; A28G U31A A64G U78C: 0.26.
As for C29G A56U A75G U80C, the self-cleavage is 0.14.
Next, C29U A45G A65U: 0.24; A28G C38U U69C A77G U78C: 0.37; A28G A45U U54C U78C: 0.5.
As for A28G U43C C44U U49C U60C, the self-cleavage amounted to 0.21.
Consider A28G A35U A64U, for which the self-cleavage was 0.07.
Regarding A28G C38U A56G U69C C81A, the self-cleavage was found to be 0.19.
Next, A28G U66C U69C: 0.48; A28G A35G C38U U72C: 1.18; A28G G30A A35U U49C U67C: 0.07.
For A28G U48C U54G, the self-cleavage was 0.14.
As for A28G G30A C68U, the self-cleavage worked out at 0.13.
For A28U U58A U69C, the self-cleavage turned out to be 0.15.
Regarding A28G U48C U51C U60A G63A, the self-cleavage was determined as 0.12.
Turning to A28G A47U U60A U69C U78C, the self-cleavage was found to be 0.11.
As for A28G A57G U80C, the self-cleavage stood at 0.32.
Next, C29G C37G C81U: 0.15; A28G A64U U67A U78C: 0.13.
Next, A28U U41C G63U: 0.93; A28U A35G U54A U72A: 1.16.
The value for A28G G42U U43A U48C was 0.21; that for C27U U31C U43A was 0.18; that for A28U U41A A57U G61C U66C was 0.08.
A28G U31A A35G U41C A45U A57G: the self-cleavage is 0.15.
Turning to A28G U41A A45G, the self-cleavage was determined as 0.15.
As for A28U U48C G53A U67C U69A U78C, the self-cleavage came out at 0.28.
Take A28U U41C A45G U72C: the self-cleavage amounted to 0.64.
Regarding A28G U66G G70A U78C, the self-cleavage was found to be 0.14.
On to A28C C34G U43C, for which the self-cleavage stood at 0.19.
Next, C27U G42C A64G U66C: 0.16; A28G C40A U54C: 0.08.
Next, C29U C34U A56G U60C U72A: 0.04; A28G C39G U51A U66C G70A: 0.32.
The value for A28G U41G G46A U49C A64G A75C was 0.29.
On to C29U C39U U51C U69A U76A, for which the self-cleavage was 0.08.
Take A28G A35G U41A A45G A56U: the self-cleavage was found to be 0.27.
For A28U A47G G63U, the self-cleavage was 0.78.
On to A28G U60A A77G, for which the self-cleavage came out at 0.19.
With A28G G42A A45G U51C, the self-cleavage stood at 0.15.
Next, A28G U43C U67C U80C: 0.1; A28G U66C U67G: 0.18.
As for G30A A45U U54C U60G U78C, the self-cleavage was found to be 0.07.
Regarding A28G G36A U41A U43A A57U, the self-cleavage worked out at 0.14.
With A28G U41C U58C U66C, the self-cleavage came out at 0.36.
A28G C44A A56U U67A A75G: the self-cleavage came out at 0.12.
Consider C27U A35U U54A U78C, for which the self-cleavage is 0.13.
For A28U G63C U80C, the self-cleavage was found to be 0.83.
Next, A28G U43C A56C: 0.4; G30A A56G U67G U72C: 0.05; A28G A57U C62G C79U: 0.09.
In the case of A28C U72A U78A, the self-cleavage was found to be 0.51.
In the case of C27U U54A U72C U74C, the self-cleavage came out at 0.12.
On to A28G G73A A77G, for which the self-cleavage worked out at 1.41.
For the variant A28U A35G G53U A56G U58C U69A, the self-cleavage was determined as 0.43.
Next, A28G G36C G52U A57G A65C: 0.12; A28G U43G G53C U72C: 0.33.
As for A28G U66C U72C, the self-cleavage stood at 0.18.
A28G A45C A47G A64U U67C: the self-cleavage came to 0.1.
The value for C29U A45U U51C A64G was 0.16; that for A28G U31C U41C C62U A64U was 0.11.
The value for A28U U49C U72A was 0.14; that for C29U A65G U78C was 0.08; that for C29U A45U U49A U72C U76A was 0.15.
The value for A28G G33C A35G U66C was 0.15; that for A28G G42A U69C was 0.15; that for A28G A57G U72A was 0.16.
As to A28G U31C U67A U78G, the self-cleavage was determined as 0.08.
Next, C29U U60A A64U U67C: 0.21; A28G U67C U80A: 0.11; C29U A35G A64G U74A: 1.21.
As to A28G U51C A56G U78A, the self-cleavage turned out to be 0.33.
As to A28G U31C A35G A64G, the self-cleavage worked out at 0.99.
As to C29U A65G U69C U72A U80C, the self-cleavage was 0.22.
Regarding A28U U72A U80C, the self-cleavage was found to be 1.18.
Take A28G A64U A65C: the self-cleavage worked out at 0.14.
The value for A28G A35G U69C was 0.51; that for C27U A45G U51A U54A U67C U74C was 0.07; that for A28G A47G U72A U78C was 0.17.
As for A28G U41C A77G, the self-cleavage was found to be 0.56.
Regarding A28G C44U A47U U72C, the self-cleavage is 0.18.
The value for A28U U31C C38G was 0.11; that for A28G A35U U43C U54C U78A was 0.15.
Consider A28U U43C U66C C71G U76C, for which the self-cleavage was determined as 0.14.
The value for A28G U41A U49C U69A was 0.05.
For A28U U31C C62U U78A U80C, the self-cleavage came to 0.06.
Turning to A28C C62A U67A, the self-cleavage was 0.17.
With A28U G36A C37U A56G, the self-cleavage was found to be 0.13.
Take A28U A56G A57U A77G: the self-cleavage was 0.17.
As to C29U A35G U66C U80A, the self-cleavage was 0.8.
For A28G U69A G73C A75U, the self-cleavage was determined as 0.33.
For A28G U43C U60C C81U, the self-cleavage turned out to be 0.27.
Regarding C29U U43C U51A A56U, the self-cleavage is 0.29.
Next, A28G C29U U67C: 0.05; C29U U41C U51A U72C: 0.55.
The value for A28U A35U A65U U76C U80C was 0.07.
As to A28U A64G C79U, the self-cleavage was found to be 0.75.
Regarding A28G G33A A47G U51C A57G, the self-cleavage stood at 0.07.
On to C29U U41A A45U C50A U60C A75G, for which the self-cleavage was found to be 0.14.
Next, C29U U43C A56G: 0.09; C29U C32A G36U C44U G61A: 0.08.
The value for A28U U51C A64U was 0.19; that for C29U G36C G52U A65U A77G was 0.14; that for A28G G55U U72C was 0.64.
Take A28G A45G A56G A65G A75U C81A: the self-cleavage stood at 0.06.
As to A28G A47G U67A, the self-cleavage was 0.16.
For A28G U31A C37U U49C U51A A64G, the self-cleavage was 0.06.
For the variant A28G U41C U66C U67A, the self-cleavage is 0.13.
Turning to A28G A45G A57G, the self-cleavage is 0.25.
Take A28U G46A U48C: the self-cleavage was 0.44.
The value for A28G U31A C34G A56U U67C was 0.06.
For the variant C27U U31A U54C A64C U72C, the self-cleavage worked out at 0.09.
The value for C29G C37G A56G was 0.1; that for A28G U74C U78A was 0.94.
Next, A28G G63A U69A A77G U80A: 0.21; A28G A45G G52C A75U: 0.36.
Turning to A28G A35G A65C U67C, the self-cleavage turned out to be 0.32.
A28U G46A U69C: the self-cleavage amounted to 0.14.
With A28C U41C A57G U80C, the self-cleavage was found to be 0.35.
As for C27U U51A A57G C59U U69C U72A U78G, the self-cleavage worked out at 0.08.
The value for A28U A64U C68A U69C A75G was 0.14; that for A28G U49C U66C U74C was 0.11; that for A28U U41C U60C was 0.33.
In the case of A28G U43C U66C U69C, the self-cleavage was determined as 0.16.
Next, A28G U76C A77G: 0.56.
Consider A28G U51C U67C, for which the self-cleavage was 0.16.
Consider A28G C40A A47U U49C, for which the self-cleavage is 0.25.
Next, A28G C34U U78C: 0.23; C29U U43C A45U U69C U72C: 0.1.
A28U C40A U51C C59U U60C U74A: the self-cleavage was 0.02.
Take C27U U41A U78C: the self-cleavage amounted to 0.08.
For the variant A28G C38U U43A A56G U76G A77G, the self-cleavage was 0.06.
With C29G C62U U69C, the self-cleavage was determined as 0.09.
Next, A28G U54C U60C: 0.16.
The value for C29G A56G A65G was 0.08.
As for A28G A35U C39U C44U, the self-cleavage turned out to be 0.11.
For the variant A28C U31A U43A U60C G61A U67C, the self-cleavage amounted to 0.06.
Take A28G C32U A64G: the self-cleavage worked out at 0.19.
C27U U48C U72C U78A: the self-cleavage worked out at 0.09.
The value for C27U G70U U78C was 0.13; that for A28U U41C U49C was 0.24; that for A28U U67C U78A was 0.45.

The record behind these values is the RNAGym collection of RNA variant scans (doi:10.1093/nar/gkz1192).
